Measured values taken from PubChem BioAssay AID1620 (Sanford-Burnham Center for Chemical Genomics, 2009).
A number of entries come with more than one value. The other results are left out here.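 How the source made its calls: active means toxicity graded low, moderate or high, meaning less radioactive sulfur built into protein than in solvent-only controls; inactive means the rest.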 An entry can have further records. Values given together repeat one measurement (runs, samples, wells, individuals or studies). Marks in square brackets tell the records apart. Letters count within one entry.

Tested on: HeLa, 35S-Met/Cys protein incorporation toxicity, 3 h
Test: HeLa cytotoxicity by protein synthesis, late-stage follow-up, cytotoxicity control for PMI inhibitor project, HeLa cells (AID 1620)

`Cc1ccc(-n2sc3ccccc3c2=O)cc1` was tested, and the outcome was “inactive; no toxicity [sample A] and active; low toxicity [sample B]”.
